Test results taken from the supplement of paper PMC10126150.
Sequences with one replicate were seen in a single cluster, so their values are uncertain.

System: ATP
Assay: switch fluorescence ratio, 500 uM ATP over buffer (Cy3 cluster intensity, sum of 5 cycles each) (fold (ratio)); higher = stronger signal-on switching upon ATP binding; sequences stand for … in TCGTCGGCAGCGTCAGATGTGTATAAGAGACAGTTTTTTTTTTTTTTTTTTTTTTTTT…TC
Details: aptamer strand: ATP DNA aptamer (quencher-CACCTGGGGGAGTATTGCGGAGGAAGG + anchor), 100 nM annealed; ATP concentration: 500 uM; one replicate
Summary of the method: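 For every switch-domain sequence, the fluorescence ratio is the mean of per-cluster values, each being summed target-cycle Cy3 intensity over summed buffer-cycle Cy3 intensity. Clusters outside 100-1000 RFU were excluded. On a modified Illumina MiSeq flow-cell, the Cy3-labelled switching-strand clusters were annealed to 100 nM quencher-labelled ATP aptamer, imaged in selection buffer and then after 15 min with 500 uM ATP at 22 °C. Five such cycles were run, with NaOH stripping and re-annealing between them.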
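Also: ATP exposure 15 min at 22 °C before imaging.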

| Sequence | switch fluorescence ratio |
| --- | --- |
| GTTCGTAATG | 1.04 |
| CGCCTAGGGT | 1.01 |
| AACGAGAAGA | 1.02 |
| GGATAACGAA | 1.05 |
| GAAACCCGGG | 1.03 |
| ATGATACCGC | 1.39 |
| ATCATATCTT | 1.03 |
| CATTGGAAA | 1 |
| TCGAAGTGGA | 0.992 |
| GGGAAAGCCC | 1.01 |
| ACCGGCTGTG | 1.02 |
| TCTCGTTGTG | 0.996 |
| TAGGCAGGTT | 0.999 |
| AGGCACAGTC | 0.996 |
| AAGAGTATGC | 0.878 |
| CCTCTCGGTT | 1.56 |
| TAGACCTCGC | 1.01 |
| TAGGGATTAA | 1.01 |
| GCCAAACGTC | 1.1 |
| ATTCAGTGGG | 0.982 |
| CGTCTGGGC | 0.981 |
| CCCCTTGTTG | 1.32 |
| ATGCGGGGCC | 0.934 |

| Sequence | switch fluorescence ratio |
| --- | --- |
| TATCAATTAA | 0.994 |
| AACCAGGAAC | 1.03 |
| AGGTATCCGT | 1.04 |
| TTTTGCAGCA | 1 |
| CCGCCCTGGC | 1.27 |
| GATTTTCACG | 0.953 |
| TATGCCAGAC | 1.08 |
| GTTCATCAGA | 1.01 |
| TAACCTACGG | 1.17 |
| TGCGAGACTA | 1.11 |
| GCTTGAATCC | 0.974 |
| GGAAGTACGG | 1.37 |
| AGTTAGATGT | 1.03 |
| AGTTGGTATA | 1.03 |
| AAAAATGATG | 1 |
| CGAGTAAGTT | 0.994 |
| ATTAAGCCTA | 1.02 |
| GATGTATGAC | 1.04 |
| CGCATTTGTA | 0.999 |
| ATGGAGGAG | 0.999 |
| ATCGCTGACG | 0.971 |
| CAGTTGTTAG | 1.02 |
| TCCTTAGTGT | 0.988 |

| Sequence | switch fluorescence ratio |
| --- | --- |
| GGAAGTTTTC | 1.1 |
| CTTGGATAAT | 1 |
| GGCGGTTTTC | 1 |
| CCTCAATAGG | 1.53 |
| GTTAATTCGC | 1.03 |
| AGATACCCGG | 1.03 |
| CAGAACTAGA | 1.01 |
| AAATCTTTGG | 0.954 |
| TCCCCTTTCG | 1.04 |
| TTGCTTGCTA | 1 |
| AAGCTCGGAG | 1.02 |
| CGCGTATGCG | 1.02 |
| TTATGCAGA | 0.999 |
| CCTTGCTGGG | 1.09 |
| TTACCTGCCG | 1.13 |
| CTATATTGGT | 1.03 |
| GAATGCGCTG | 1.02 |
| TGTAATGTAG | 1 |
| TCGTTAAATA | 0.972 |
| TCTTCTAACG | 1.07 |
| TTTGAAGTT | 0.99 |
| ACATTTGTTG | 0.985 |
| AGCGATAGGA | 1.15 |

| Sequence | switch fluorescence ratio |
| --- | --- |
| TGGGGTGATT | 1 |
| CAGTTCCACA | 1.04 |
| GGATTGGAAG | 0.96 |
| TTAGGAACCA | 1.1 |
| CTTCTAGTCA | 0.964 |
| GGTAGTGGTC | 0.979 |
| CCGTAGCTAT | 2.31 |
| ATAGAGCGAA | 1.03 |
| CATAAGTGCG | 0.985 |
| TGCAGCATGC | 1.19 |
| CAATAACAGG | 1.07 |
| CTCAGGAGTT | 1.04 |
| CGTCTTGCCT | 0.984 |
| GGTCACTTA | 1.03 |
| TAAACGTTGG | 1.05 |
| ATGAGCGTGT | 0.994 |
| AATACCATTC | 0.975 |
| GAAGGCGTA | 1.06 |
| ACTAATGGTA | 1.01 |
| TGTTTGCAGG | 1 |
| GCGTGCACTT | 1.03 |
| GCAGTTTACG | 0.986 |
| ATACTTTAAG | 1.04 |

| Sequence | switch fluorescence ratio |
| --- | --- |
| TGCGGGA | 1.05 |
| ACCGCCTCTA | 1.2 |
| AGAATATCTG | 1.04 |
| ACTCACCATC | 1.25 |
| AAAAGCCGTT | 1.02 |
| TTGCAATGTA | 1.12 |
| CGGTATGACC | 1.03 |
| TTCAGTTCCG | 0.998 |
| GGTGGTGGTG | 1.01 |
| AGATCGACGT | 0.957 |
| TAACACCCGA | 1.07 |
| CGAGCGAGGG | 0.961 |
| AGGGATTACC | 1.25 |
| TATGTCAGGG | 0.995 |
| TTTTGGTG | 1.06 |
| TGGTATTTGA | 0.961 |
| AAGCGGCGCA | 1.03 |
| CGATAGACTG | 1.02 |
| AGAAAACTGT | 1.12 |
| ACGGAAGAAC | 1.27 |
| GAAGACATAT | 1.1 |
| TTAGTGTTTC | 0.99 |
| GCGAGGTCAT | 0.992 |

| Sequence | switch fluorescence ratio |
| --- | --- |
| AAAAGTCTTA | 1.03 |
| TTATGCTTCG | 0.988 |
| TGGGGACGCA | 0.986 |
| GGTAAGACTC | 1.16 |
| TGGCTGAGA | 1.01 |
| TCACGGTCTC | 1.02 |
| TTACAAGCTT | 1.03 |
| TTCGGGCGGG | 1.02 |
| CAAAAGCCCT | 1.01 |
| CGGTTGGTAA | 1.02 |
| CGCTGAAATG | 1.02 |
| CAGTTTAGGA | 0.991 |
| CAAGTTTAGT | 0.995 |
| CGACTGCAGG | 1.05 |
| ATCATTTCCG | 0.994 |
| TGTCAAAATC | 0.945 |
| GATATCTAAT | 1.02 |
| AGATGGACGG | 1.01 |
| TGCTTGCACC | 1.03 |
| AATGTTGCCG | 1 |
| TGAATCTGAT | 0.989 |
| TGAGGGCCAG | 0.976 |
| GGCTCAGAGC | 1.01 |

| Sequence | switch fluorescence ratio |
| --- | --- |
| ATTCTTGGCT | 0.986 |
| AGGGCAAGC | 1.34 |
| GTTTGCAGCC | 0.995 |
| GAACATCCGG | 1 |
| AACAATTGCA | 0.994 |
| GTCTCCCAAA | 1.48 |
| AACTAAATAT | 1.02 |
| CAGGGCTCTA | 0.983 |
| ACCCATTGTT | 1.03 |
| ATTTCTGAA | 0.982 |
| CTTTGTTGGA | 1.03 |
| GGTGTCCACA | 0.995 |
| ATGCAGATTG | 1.01 |
| ACTGGTAAAT | 0.969 |
| AGGTCTATGT | 0.986 |
| TGTTTGTCAA | 1.01 |
| TGGGACCATA | 1.01 |
| AGCAGAATAT | 1.02 |
| AATGGGCACC | 0.978 |
